The results in this text go back to paper PMC10496494 (2023).

The test concerns the target T1, DDX24^WT (human wildtype DDX24, residues 28 to 859), purified recombinant (human, UniProt Q9GZR7 28-859).
T1 chain: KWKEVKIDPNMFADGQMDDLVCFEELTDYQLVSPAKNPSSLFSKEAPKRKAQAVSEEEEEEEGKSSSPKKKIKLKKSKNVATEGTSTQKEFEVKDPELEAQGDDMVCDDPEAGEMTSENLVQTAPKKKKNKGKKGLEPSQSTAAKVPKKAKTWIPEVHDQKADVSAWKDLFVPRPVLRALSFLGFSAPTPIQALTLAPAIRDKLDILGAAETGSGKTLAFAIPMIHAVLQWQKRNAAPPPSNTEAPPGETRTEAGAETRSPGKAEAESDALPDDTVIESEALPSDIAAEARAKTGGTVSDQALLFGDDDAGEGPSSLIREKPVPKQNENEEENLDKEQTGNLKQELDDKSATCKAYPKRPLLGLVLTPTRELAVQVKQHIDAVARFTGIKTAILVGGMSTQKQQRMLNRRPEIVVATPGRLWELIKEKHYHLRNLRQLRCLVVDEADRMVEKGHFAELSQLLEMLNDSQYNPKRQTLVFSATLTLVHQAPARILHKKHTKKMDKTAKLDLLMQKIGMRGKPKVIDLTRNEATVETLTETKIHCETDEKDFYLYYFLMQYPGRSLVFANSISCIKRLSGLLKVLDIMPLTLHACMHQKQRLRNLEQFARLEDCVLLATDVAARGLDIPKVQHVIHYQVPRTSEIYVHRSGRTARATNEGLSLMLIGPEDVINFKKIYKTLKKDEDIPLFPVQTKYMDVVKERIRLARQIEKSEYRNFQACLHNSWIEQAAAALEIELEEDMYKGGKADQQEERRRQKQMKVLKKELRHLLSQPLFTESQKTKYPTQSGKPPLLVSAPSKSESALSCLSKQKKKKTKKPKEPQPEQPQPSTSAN
The experiment in a line: SPR; DDX24^WT immobilised, NPM1 as analyte.

B1: NPM1 (human wildtype nucleophosmin, […]), purified recombinant (domain or fragment)
chain: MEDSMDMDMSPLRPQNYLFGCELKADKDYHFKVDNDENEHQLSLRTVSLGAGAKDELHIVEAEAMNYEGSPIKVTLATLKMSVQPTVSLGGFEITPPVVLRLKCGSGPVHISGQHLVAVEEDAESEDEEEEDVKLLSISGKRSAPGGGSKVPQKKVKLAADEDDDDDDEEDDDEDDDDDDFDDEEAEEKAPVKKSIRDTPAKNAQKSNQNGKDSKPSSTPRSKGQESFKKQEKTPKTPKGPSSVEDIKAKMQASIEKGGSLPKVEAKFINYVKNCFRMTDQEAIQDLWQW
For B1, the dissociation constant (Kd) was determined as 1.2 nM.
